From PubChem BioAssay AID686971 (National Center for Advancing Translational Sciences (NCATS), 2013)
Among all 360,000 compounds or so, about 7,500 (2.1%) were called active. This list was built around the results that the source calls inconclusive (neither active nor inactive); the mix of calls is not that of the screen. Calls follow the shape of the dose curve; as a rule, active = well fitted cell-killing curve with a large enough effect; inconclusive = small, poorly fitted or top-dose-only effect, or effect the other way, or another doubt; inactive = no such curve, though single readings can be large or run the other way. No potency is given beside an inconclusive call; the fits are too rough.
Potency is read from the fitted curve at half-maximal effect; tags tell the direction and shape of the fitted curve.

Experiment: qHTS for induction of synthetic lethality in tumor cells producing 2HG: qHTS for the HT-1080-IDH1KD cell line;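 as to activity, negative = toxicity: 0% = DMSO wells and -100% = cell-free medium wells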
Conditions: HT-1080 IDH1 knockdown viability, ATP luminescence, 48 h; activity, negative = toxicity: at 46.1 µM (top of the series) unless noted
Method in brief: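 After a 2 h attachment period, IDH1KD HT-1080 cells took pin-transferred compound for 48 h at 37 °C; ATP-based luminescence after 10 min room-temperature reagent incubation reported viability.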
In the case of COc1ccc2c(c1)C1CC(C)(NC(=O)C1S(=O)(=O)c1ccc(F)cc1)O2 (stereo not drawn), the “activity, negative = toxicity” value is reported as inactive: 2.74%.
For CCNC(=O)C1(C)CCCN(C(=O)c2sc(-c3ccccc3)nc2C)C1 (stereo not drawn), the “activity, negative = toxicity” value was inactive: 11.2%.
For CCN(CC)c1ccc(/C=N\NC(=O)c2cccc3cc[nH]c23)cc1, the Potency was active: 5.17 µM.
With N/C(=N\OC(=O)c1ccc(Cl)c(Cl)c1)c1ccccn1 the Potency was inconclusive [cytotoxic, single point].
For COc1ccccc1CNc1nc(NCc2ccccc2F)c2sccc2n1, the Potency was active: 20.6 µM.
For Cn1cc(/C=C/c2cc[n+](C)cc2)c2cc(Cl)ccc21, the Potency was inconclusive [cytotoxic, partial curve].
With Cc1ccc(S(=O)(=O)Nc2ccc(NC(=O)Nc3cccc(C(F)(F)F)c3)cc2)cc1 the Potency was inconclusive [cytotoxic, single point].
For O=C(NNC(=O)c1ccccc1Br)c1cnccn1, the Potency was inconclusive [cytotoxic, partial curve].
In the case of Cc1cccc(C(=O)N/N=C/c2ccccn2)c1, the Potency is reported as inconclusive [cytotoxic, partial curve].
In the case of CC1(C(=O)NCC2CCOCC2)Cc2c(-c3cccc(C(N)=O)c3)ccnc2O1 (stereo not drawn), the Potency is reported as inconclusive [cytotoxic, single point].
With Cc1sc2nc(CSc3ccc([N+](=O)[O-])c(C(F)(F)F)c3)[nH]c(=O)c2c1C the activity, negative = toxicity was inconclusive: -32.4% [cytotoxic].
In the case of Fc1ccc(N/N=C/c2ccc(N3CCOCC3)cc2)c(F)c1, the activity, negative = toxicity is reported as inconclusive: -15% [cytotoxic].
In the case of O=C(/C=C/c1cn(CC(O)CN2CCCCC2)c2ccccc12)c1ccccc1 (stereo not drawn), the Potency is reported as active: 16.4 µM.
For O=S1(=O)CC(N2CCN(Cc3ccccc3F)CC2)CN1Cc1cn(Cc2ccc(C(F)(F)F)cc2)nn1 (stereo not drawn), the activity, negative = toxicity was inconclusive: -18.8% [cytotoxic].
For CC(C)C1C(=O)N(Cc2cn(CC3CCCCC3)nn2)CCS(=O)(=O)N1Cc1ccc(-c2ccc(Cl)nc2)cc1 (stereo not drawn), the Potency was inconclusive [cytotoxic, single point].
For O=[N+]([O-])c1ccc(NS(=O)(=O)c2ccccc2)c(Cl)c1, the Potency was inconclusive [cytotoxic, partial curve, poor fit].
In the case of Cc1oc2ccc(O)cc2c1C(=O)c1ccc(Br)cc1, the Potency is reported as inconclusive [cytotoxic, single point].
With CN(Cc1ccccc1)c1nc(N)c([N+](=O)[O-])c(NCc2ccccc2)n1 the Potency was inconclusive [cytotoxic, single point].
With CCN(CC)S(=O)(=O)c1ccc(C(=O)NCc2n[nH]c(=S)n2Cc2ccccc2)cc1 the Potency was inconclusive [cytotoxic, single point].
With CCOC(=O)C1CCCN(C(=O)CN2C(=O)NC(C)(c3ccc4ccccc4c3)C2=O)C1 (stereo not drawn) the “activity, negative = toxicity” value was inactive: -16.1%.
In the case of O=C(OCc1ccccc1F)c1cc2ccccc2cc1O, the “activity, negative = toxicity” value is reported as inactive: 6%.
With CCN1CCN(c2nc(-c3ccccn3)nc3ccccc23)CC1 the Potency was active: 10 µM.
For CC1(C)C2CCC1(C)C(OCCNCCOC(=O)Nc1ccccc1)C2 (stereo not drawn), the Potency was inconclusive [cytotoxic, single point].
With O=C(NCCC1=CCCCC1)C1CCN(Cc2cnn(-c3ccccc3)c2-n2cccc2)CC1 the Potency was active: 25.9 µM.
In the case of COc1ccc(-c2ccc(SCC(=O)Nc3cc(C)on3)nn2)cc1OC, the Potency is reported as inconclusive [cytotoxic, single point].
In the case of COc1ccc(Nc2nc(S(=O)(=O)c3ccc(C)cc3)c(Cl)s2)cc1, the Potency is reported as active: 23.1 µM.
With CCN(CC)CCN(C(=O)/C=C/c1cccs1)c1nc2ccc(Cl)cc2s1 the activity, negative = toxicity was inconclusive: -10.8% [cytotoxic].
In the case of O=C(/C=C/c1ccc(Cl)cc1Cl)NC(=S)Nc1ccccn1, the “activity, negative = toxicity” value is reported as inactive: 13.9%.
In the case of CN(C)c1ccc(C(=O)C(O)c2ccccc2)cc1 (stereo not drawn), the “activity, negative = toxicity” value is reported as inactive: 2.87%.
For CCOC(=O)c1ccc(NC(=O)CSc2ccc(-c3ccccn3)nn2)cc1, the Potency was inconclusive [cytotoxic, single point].
For CCOc1ccc2[nH]c3c(N4CCc5ccccc5C4)ncnc3c2c1, the Potency was active: 10.3 µM.
With COc1ccc(OC)c(N2CC(O)=C(c3nc4ccccc4s3)C2=N)c1 the “activity, negative = toxicity” value was inactive: -17.2%.
With Cc1c(CN2CCN(CC(C)C)C(CCO)C2)[nH]c2ccc(Cl)cc12 (stereo not drawn) the Potency was inconclusive [cytotoxic, single point].
For Cc1onc(-c2ccccc2)c1C(=O)Nc1nnc(CC(C)(C)C)s1, the “activity, negative = toxicity” value was inactive: 18%.
For Cc1ccsc1/C=N/NC(=O)c1ccc2nc[nH]c2c1, the activity, negative = toxicity was inconclusive: 30.2%.
In the case of COc1cc(C(=O)/C=C/c2cccnc2)ccc1O, the Potency is reported as inconclusive [cytotoxic, partial curve].
For Cc1sc2nc(CN3CCOCC3)nc(N3CCN(S(=O)(=O)c4ccccc4)CC3)c2c1C, the “activity, negative = toxicity” value was inactive: -3.36%.
For CCN(CC)C(=O)CSc1nc(OC)cc(=O)[nH]1, the “activity, negative = toxicity” value was inactive: 6.39%.
In the case of COc1ccc(Cl)cc1NC(=O)c1cc(-c2cc(C)ccc2O)n[nH]1, the “activity, negative = toxicity” value is reported as inactive: 0.76%.
With CC(C)(C)c1cccc(C2(O)C(=O)c3ccccc3C2=O)c1O the Potency was inconclusive [cytotoxic, single point].
In the case of Cc1cc2nc(C3CCCCC3)c(Cc3ccsc3)n2c(C)c1Br, the Potency is reported as inconclusive [cytotoxic, single point].
For Cc1cc(C)n2c(SCc3ccccc3Cl)nnc2n1, the “activity, negative = toxicity” value was inactive: -5.89%.
In the case of Cc1ccc(C)c(NC(=O)CCOc2ccccc2)c1, the “activity, negative = toxicity” value is reported as inactive: 3.33%.
In the case of O=C(C1=C[C@H](c2csc3ccccc23)C[C@H](OCCCCO)O1)N1CCN(Cc2ccc3c(c2)OCO3)CC1, the Potency is reported as inconclusive [cytotoxic, single point].
In the case of CSc1sc(C)cc1C1C(C#N)=C(N)N(c2cccnc2)C2=C1C(=O)CCC2 (stereo not drawn), the Potency is reported as inconclusive [cytotoxic, single point].
With CCN1CCN(C(=S)Nc2ccc3nc(N4CCN(CC)CC4)cc(C)c3c2)CC1 the Potency was inconclusive [cytotoxic, partial curve].
With O=C(CCC1CCCC1)Nc1cc(C(F)(F)F)ccc1N1CCOCC1 the “activity, negative = toxicity” value was inactive: 10.8%.
For COCc1nnc(NC(=O)c2ccc(OC)cc2OC)s1, the Potency was inconclusive [rising, partial curve].
In the case of CC/C(Cc1ccccc1)=N/NC(=O)c1cccc(Br)c1, the activity, negative = toxicity is reported as inconclusive: 30.8%.
In the case of CSc1cccc(NC(=O)CN(Cc2ccc(Cl)cc2)S(C)(=O)=O)c1, the Potency is reported as inconclusive [cytotoxic, single point].
With C/C(O)=C\c1nc2ccccc2oc1=O the Potency was inconclusive [cytotoxic, single point].
With O=C(Nc1cccnc1Cl)c1cc([N+](=O)[O-])ccc1Cl the Potency was inconclusive [cytotoxic, single point].
In the case of O=C1NCCCC1C(=O)N/N=C/c1cccc(Cl)c1 (stereo not drawn), the “activity, negative = toxicity” value is reported as inactive: 11.7%.
For CN1CCN(/N=C/c2c3ccccc3c(Cl)c3ccccc23)CC1, the Potency was active: 20.6 µM.
With Cc1ccc(NC(=O)CNc2ccc(OC(C)C)cc2)c(C)c1 the “activity, negative = toxicity” value was inactive: 3.23%.
In the case of CCOC(=O)c1c(NC(=O)CSc2nnc(C)o2)sc(C)c1C, the “activity, negative = toxicity” value is reported as inactive: 11.1%.
For Cc1cc(C)n2ncc(C(=O)NCc3ccc(Cl)cc3)c2n1, the “activity, negative = toxicity” value was inactive: 1.13%.
In the case of CCN1CCN(c2ccc(NC(=O)CCc3c(C)nc4c(-c5ccc(F)cc5)c(C)nn4c3C)cc2)CC1, the “activity, negative = toxicity” value is reported as inactive: -27.1%.
With N#CCC(=O)Nc1ccc(C(=O)OCC(=O)c2ccc3c(c2)OCO3)cc1 the Potency was inconclusive [cytotoxic, partial curve].
With CC(NC(=O)CCl)c1ccccc1Br (stereo not drawn) the Potency was inconclusive [cytotoxic, partial curve].
With Cc1cc(C)n(-c2nc3c(c(=O)[nH]c(=O)n3C)n2CC(O)COc2ccc(Cl)cc2Cl)n1 (stereo not drawn) the Potency was inconclusive [cytotoxic, full curve].
With CN(C)S(=O)(=O)c1ccc(NC(=O)N2CCN(c3cccc(C(F)(F)F)c3)CC2)cc1 the Potency was inconclusive [cytotoxic, partial curve, poor fit].
With O=S(=O)(Nc1ccc(C(O)(C(F)(F)F)C(F)(F)F)cc1)c1cccc2ccccc12 the Potency was inconclusive [cytotoxic, single point].
For CN1CCN(C(=O)c2cc3c(s2)-c2ccccc2S(=O)(=O)C3)CC1, the “activity, negative = toxicity” value was inactive: 0.814%.
With COCCCn1[nH]c2c3c(ccc2c1=O)C(=O)c1ccccc1C3=O the Potency was inconclusive [cytotoxic, partial curve].
In the case of O=C1NC[C@H](CCCCN2C[C@H](Cc3ccccc3)N(CC3CCCCC3)C(=O)C2=O)N(CC2CCCCC2)C1=O, the Potency is reported as inconclusive [cytotoxic, single point].
In the case of O=C(CCCN1C(=O)/C(=C/c2ccccc2)SC1=S)Nc1ccccc1O, the Potency is reported as inconclusive [cytotoxic, single point].
For O=C(Oc1c(CN2CCOCC2)cc(Cl)c2cccnc12)c1ccccc1Br, the Potency was inconclusive [cytotoxic, single point].
For Cc1cc(NC(=O)NC(=O)c2ccccc2NC(=O)C(C)N)ccc1Oc1ncc(Br)cn1 (stereo not drawn), the Potency was active: 0.092 µM.
For CC(C)CN(CC(C)C)C1=N/C(=C\c2ccco2)C(=O)N1c1ccccc1, the Potency was inconclusive [cytotoxic, single point].
In the case of COc1ccc(/C=N/NC(=O)c2ccccc2Cl)cc1CSc1nc2ccccc2s1, the Potency is reported as inconclusive [cytotoxic, full curve].
In the case of Cc1cc(C)cc(CSc2ccc(S(=O)(=O)N3CCCC3)cn2)c1, the “activity, negative = toxicity” value is reported as inactive: -5.59%.
With Cn1c(-c2cc(Cl)ccc2O)nc2c1c(=O)[nH]c(=O)n2Cc1ccccc1 the Potency was inconclusive [cytotoxic, single point].
